# Results: paper PMC9911399, “Two distinct binding modes provide the RNA-binding protein RbFox with extraordinary sequence specificity”
# Changes are numbered by the printed parent chain; changes in the protein carry UniProt numbers. This is one part of the list.
# T1: RBFOX1 RRM RbFoxmut (Fox-RRM*) (Homo sapiens, UniProt Q9NWB1 109-208, R118D;E147R;N151S;E152T)
# T1 sequence: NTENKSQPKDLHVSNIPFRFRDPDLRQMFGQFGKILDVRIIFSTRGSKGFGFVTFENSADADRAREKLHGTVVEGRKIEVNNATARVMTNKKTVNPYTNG
# B1: UAAAAAA (DNA:RNA)
# RNA: GGGAGACCGGAAUUCAGAUUGUCCUAAAAAAUUAAAUCCCGUCGUAGCCACCA
# DNA 1: CAATCTGAATTCCGGTCTCCC
# DNA 2: TGGTGGCTACGACGGGATT
# B2: AACGGGC (DNA:RNA)
# RNA: B1 RNA with U25A, A27C, A28G, A29G, A30G, A31C
# DNA 1: CAATCTGAATTCCGGTCTCCC
# DNA 2: TGGTGGCTACGACGGGATT
# B3: GUUUGUA (DNA:RNA)
# RNA: B1 RNA with U25G, A26U, A27U, A28U, A29G, A30U
# DNA 1: CAATCTGAATTCCGGTCTCCC
# DNA 2: TGGTGGCTACGACGGGATT
# B4: GUGCGAU (DNA:RNA)
# RNA: B1 RNA with U25G, A26U, A27G, A28C, A29G, A31U
# DNA 1: CAATCTGAATTCCGGTCTCCC
# DNA 2: TGGTGGCTACGACGGGATT
# B5: GAGCGAG (DNA:RNA)
# RNA: B1 RNA with U25G, A27G, A28C, A29G, A31G
# DNA 1: CAATCTGAATTCCGGTCTCCC
# DNA 2: TGGTGGCTACGACGGGATT
# B6: ACAUAAA (DNA:RNA)
# RNA: B1 RNA with U25A, A26C, A28U
# DNA 1: CAATCTGAATTCCGGTCTCCC
# DNA 2: TGGTGGCTACGACGGGATT
# B7: UGUAAUA (DNA:RNA)
# RNA: B1 RNA with A26G, A27U, A30U
# DNA 1: CAATCTGAATTCCGGTCTCCC
# DNA 2: TGGTGGCTACGACGGGATT
# B8: AUCUCAG (DNA:RNA)
# RNA: B1 RNA with U25A, A26U, A27C, A28U, A29C, A31G
# DNA 1: CAATCTGAATTCCGGTCTCCC
# DNA 2: TGGTGGCTACGACGGGATT
# B9: ACGCUGG (DNA:RNA)
# RNA: GGGAGACCGGAAUUCAGAUUGUCCACGCUGGUUAAAUCCCGUCGUAGCCACCA
# DNA 1: CAATCTGAATTCCGGTCTCCC
# DNA 2: TGGTGGCTACGACGGGATT
# B10: AUCUAUU (DNA:RNA)
# RNA: B9 RNA with C26U, G27C, C28U, U29A, G30U, G31U
# DNA 1: CAATCTGAATTCCGGTCTCCC
# DNA 2: TGGTGGCTACGACGGGATT
# B11: UUGGGUU (DNA:RNA)
# RNA: B9 RNA with A25U, C26U, C28G, U29G, G30U, G31U
# DNA 1: CAATCTGAATTCCGGTCTCCC
# DNA 2: TGGTGGCTACGACGGGATT
# B12: UAACGUA (DNA:RNA)
# RNA: B1 RNA with A28C, A29G, A30U
# DNA 1: CAATCTGAATTCCGGTCTCCC
# DNA 2: TGGTGGCTACGACGGGATT
# B13: CUCCUGC (DNA:RNA)
# RNA: B9 RNA with A25C, C26U, G27C, G31C
# DNA 1: CAATCTGAATTCCGGTCTCCC
# DNA 2: TGGTGGCTACGACGGGATT
# B14: GAUCUAC (DNA:RNA)
# RNA: B9 RNA with A25G, C26A, G27U, G30A, G31C
# DNA 1: CAATCTGAATTCCGGTCTCCC
# DNA 2: TGGTGGCTACGACGGGATT
# B15: UUGAGGA (DNA:RNA)
# RNA: B1 RNA with A26U, A27G, A29G, A30G
# DNA 1: CAATCTGAATTCCGGTCTCCC
# DNA 2: TGGTGGCTACGACGGGATT
# B16: CGUUAUA (DNA:RNA)
# RNA: B1 RNA with U25C, A26G, A27U, A28U, A30U
# DNA 1: CAATCTGAATTCCGGTCTCCC
# DNA 2: TGGTGGCTACGACGGGATT
# B17: CUGUUCG (DNA:RNA)
# RNA: B9 RNA with A25C, C26U, C28U, G30C
# DNA 1: CAATCTGAATTCCGGTCTCCC
# DNA 2: TGGTGGCTACGACGGGATT
# B18: CAGCCGU (DNA:RNA)
# RNA: B9 RNA with A25C, C26A, U29C, G31U
# DNA 1: CAATCTGAATTCCGGTCTCCC
# DNA 2: TGGTGGCTACGACGGGATT
# B19: CUUGGUA (DNA:RNA)
# RNA: B1 RNA with U25C, A26U, A27U, A28G, A29G, A30U
# DNA 1: CAATCTGAATTCCGGTCTCCC
# DNA 2: TGGTGGCTACGACGGGATT
# B20: CUAAAGU (DNA:RNA)
# RNA: B1 RNA with U25C, A26U, A30G, A31U
# DNA 1: CAATCTGAATTCCGGTCTCCC
# DNA 2: TGGTGGCTACGACGGGATT
# B21: UCUCCGC (DNA:RNA)
# RNA: B9 RNA with A25U, G27U, U29C, G31C
# DNA 1: CAATCTGAATTCCGGTCTCCC
# DNA 2: TGGTGGCTACGACGGGATT
# B22: CCCGUGU (DNA:RNA)
# RNA: B9 RNA with A25C, G27C, C28G, G31U
# DNA 1: CAATCTGAATTCCGGTCTCCC
# DNA 2: TGGTGGCTACGACGGGATT
# B23: CGACACU (DNA:RNA)
# RNA: B1 RNA with U25C, A26G, A28C, A30C, A31U
# DNA 1: CAATCTGAATTCCGGTCTCCC
# DNA 2: TGGTGGCTACGACGGGATT
# B24: AGACGAC (DNA:RNA)
# RNA: B9 RNA with C26G, G27A, U29G, G30A, G31C
# DNA 1: CAATCTGAATTCCGGTCTCCC
# DNA 2: TGGTGGCTACGACGGGATT
# B25: AAUGAGC (DNA:RNA)
# RNA: B9 RNA with C26A, G27U, C28G, U29A, G31C
# DNA 1: CAATCTGAATTCCGGTCTCCC
# DNA 2: TGGTGGCTACGACGGGATT
# B26: CAUUAUA (DNA:RNA)
# RNA: B1 RNA with U25C, A27U, A28U, A30U
# DNA 1: CAATCTGAATTCCGGTCTCCC
# DNA 2: TGGTGGCTACGACGGGATT
# B27: GCCUUCG (DNA:RNA)
# RNA: B9 RNA with A25G, G27C, C28U, G30C
# DNA 1: CAATCTGAATTCCGGTCTCCC
# DNA 2: TGGTGGCTACGACGGGATT
# B28: CUCCGAC (DNA:RNA)
# RNA: B9 RNA with A25C, C26U, G27C, U29G, G30A, G31C
# DNA 1: CAATCTGAATTCCGGTCTCCC
# DNA 2: TGGTGGCTACGACGGGATT
# B29: UUAUUAG (DNA:RNA)
# RNA: B1 RNA with A26U, A28U, A29U, A31G
# DNA 1: CAATCTGAATTCCGGTCTCCC
# DNA 2: TGGTGGCTACGACGGGATT
# B30: CUCUCGU (DNA:RNA)
# RNA: B9 RNA with A25C, C26U, G27C, C28U, U29C, G31U
# DNA 1: CAATCTGAATTCCGGTCTCCC
# DNA 2: TGGTGGCTACGACGGGATT
# B31: AUCGGGA (DNA:RNA)
# RNA: B9 RNA with C26U, G27C, C28G, U29G, G31A
# DNA 1: CAATCTGAATTCCGGTCTCCC
# DNA 2: TGGTGGCTACGACGGGATT
# Molecular target: T1, RBFOX1 RRM RbFoxmut (Fox-RRM*)
# Test: EMSA; HiTS-Eq, 1 nM pool, 10 min; buffer printed only for the single-RNA assays: 10 mM Tris pH 7.5, 150 mM NaCl, 3.4 mM EDTA, 0.001% NP-40, 30 C
# Conditions: tags: His6 N-terminal (pET28a); label: 5' 32P
# Summary of the method: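 These values rest on relative association constants, computed from read-count changes of each RNA species versus the control reaction and normalised to the cognate motif. Reads came from free RNA recovered by 8% native PAGE after purified RbFox RRM (wild type or mutant) at increasing concentrations was equilibrated for 10 min in 50 µL with 1 nM of a 5′-radiolabelled pool with 7 randomized nucleotides and DNA-annealed flanks.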
row,Binder,binding signal
1,B1,0.0756 KA relative to UGCAUGU
2,B2,0.0864 KA relative to UGCAUGU
3,B3,0.446 KA relative to UGCAUGU
4,B4,0.0899 KA relative to UGCAUGU
5,B5,0.109 KA relative to UGCAUGU
6,B6,0.146 KA relative to UGCAUGU
7,B7,0.0977 KA relative to UGCAUGU
8,B8,0.136 KA relative to UGCAUGU
9,B9,0.107 KA relative to UGCAUGU
10,B10,0.106 KA relative to UGCAUGU
11,B11,0.148 KA relative to UGCAUGU
12,B12,0.128 KA relative to UGCAUGU
13,B13,0.0939 KA relative to UGCAUGU
14,B14,0.0679 KA relative to UGCAUGU
15,B15,0.0773 KA relative to UGCAUGU
16,B16,0.121 KA relative to UGCAUGU

row,Binder,binding signal
1,B17,0.274 KA relative to UGCAUGU
2,B18,0.0905 KA relative to UGCAUGU
3,B19,0.198 KA relative to UGCAUGU
4,B20,0.0851 KA relative to UGCAUGU
5,B21,0.077 KA relative to UGCAUGU
6,B22,0.103 KA relative to UGCAUGU
7,B23,0.0552 KA relative to UGCAUGU
8,B24,0.0481 KA relative to UGCAUGU
9,B25,0.113 KA relative to UGCAUGU
10,B26,0.164 KA relative to UGCAUGU
11,B27,0.2 KA relative to UGCAUGU
12,B28,0.0798 KA relative to UGCAUGU
13,B29,0.113 KA relative to UGCAUGU
14,B30,0.131 KA relative to UGCAUGU
15,B31,0.0835 KA relative to UGCAUGU
